Measurements published in PubChem BioAssay AID652104 (National Center for Advancing Translational Sciences (NCATS), 2013).
Where “and” joins values, the source holds several entries; their conditions need not be identical. Equal entries are not always repeated. Among all 410,000 compounds or so, about 7,200 (1.8%) were called active. This list was built around the results that the source calls inconclusive (neither active nor inactive); the mix of calls is not that of the screen. Calls come from the whole dose curve; as a rule, active = well fitted activation curve with a large enough effect; inconclusive = small, poorly fitted or top-dose-only effect, or another doubt; inactive = no such curve, though single readings can be large or run the other way. Potencies of inconclusive entries are left out as doubtful fits.

assay: qHTS of TDP-43 Inhibitors; settings: TDP-43 expressing yeast growth rescue, BacTiter-Glo, 24 h; series mostly up to 46.1 µM; note: nearly all actives have a fitted effect of over 50% in size
Outline: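 Readout is BacTiter-Glo luminescence of cell growth, so inhibitors register as activators. TDP-43-expressing yeast at OD600=0.02 in galactose medium, after raffinose pregrowth to mid-log, were incubated with compound for 24 hr at 30 deg C.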
Potency is the fitted concentration of half-maximal effect; tags give direction and shape of the fitted curve.

Compound	Potency
CCCCN(C)C(=O)c1sc(=O)n(Cc2cc(Cl)ccc2OC)c1C	inconclusive [activator, partial curve, poor fit]
S=C(NCc1ccccc1)C(=S)NCc1ccccc1	inactive
COc1cc(OC)c(NC(=O)c2ccccc2F)cc1Cl	inconclusive [activator, full curve, poor fit]
CCC(=O)OCn1nnc2ccccc2c1=O	inactive
CCCNC(=O)c1ccc(N2CCC3(CC2)CC(c2cccc(Br)c2)=NO3)c(N)c1	inconclusive [activator, single point]
COc1ccc(C(=O)NNC(=S)NC(=O)C(C)(C)C)cc1	inactive
O=C1c2ccccc2C(=O)N1CCCc1nc(-c2ccc(Cl)cc2)no1	inconclusive [activator, full curve]
Oc1ccc(Cl)cc1C1=Nc2ccccc2N=C(c2cccc(Br)c2)C1	inactive
CCCCc1nc(N2CCN(C(=O)c3ccco3)CC2)c(C#N)c2c1CCCC2	inconclusive [activator, single point]
CCOc1ccc(CC(=O)NNC(=S)Nc2ccccc2)cc1Br	inconclusive [activator, partial curve]
O=C(Nc1ccccc1Cl)c1cccs1	inconclusive [activator, full curve]
COc1ccc(CNC(=O)/C(C)=C\C(=O)O)cc1	inconclusive [activator, partial curve]
O=C(Cn1cc(SCc2ccc(C(F)(F)F)cc2)c2ccccc21)N1CCCC1	active: 35.5 µM
CSc1ccc(Cl)c(C(=O)OCC(=O)NCC(C)C)c1	active: 14.1 µM
COc1ccc(Nc2nc(OC)nc(N3CCN(c4ccc(OC)cc4)CC3)n2)cc1	inconclusive [activator, partial curve]
N#Cc1ccc(COC(=O)CCc2c[nH]c3ccccc23)cc1	inconclusive [activator, single point]
CN1C(=O)c2cccc3c(Br)ccc(c23)C1=O	inconclusive [activator, partial curve]
Brc1ccccc1/C=N/N1CCCCC1	inconclusive [activator, single point]
COc1ccc(OC)c(NC(=O)c2ccc(OC3CSC3)cc2)c1	active: 12.6 µM
COc1ccc(CNC(=O)c2cccc(-n3cnc4cccnc43)c2C)cc1	inactive
COc1ccc(NC(=O)CCC(=O)c2cccs2)cc1S(=O)(=O)Nc1ccc(Cl)cc1	inactive
Cc1cc(NC(=O)CSc2nnc(Cc3cccn3C)n2CCc2ccccc2)no1	inactive
CCOC(=O)c1ccc(NC(=O)c2ccc3c(c2)NC(=O)c2ccccc2S3)cc1	inconclusive [activator, full curve, poor fit]
CCOc1ccc(/C=C\C(C)=N\O)cc1	inconclusive [activator, single point]
Cc1ccccc1COC(=O)CCCC1=NS(=O)(=O)c2ccccc2N1	inactive
CCOC(=O)C1(C)CCCN1C(=O)c1ccc2ccccc2c1 (stereo unspecified)	inconclusive [activator, partial curve]

Compound	Potency
Nc1cccnc1Sc1cc(Cl)c(Cl)cc1Cl	inconclusive [activator, full curve]
Cn1c(=NN=Cc2ccccc2OCCO)sc2ccccc21	active: 12.6 µM
CSc1nnc(NC(=O)c2nc(S(=O)(=O)Cc3ccccc3)ncc2Cl)s1	inconclusive [activator, partial curve]
O=C(COC(=O)/C=C/c1ccccc1Cl)NC(=O)NC1CCCC1	inconclusive [activator, partial curve]
O=C(c1ccc2c(Cl)c3c(nc2c1)CCCC3)N1CCN(c2ccc(F)cc2)CC1	active: 15.8 µM
Nc1ccccc1C(=O)Nc1cccc2ccccc12	active: 14.1 µM
Cc1ccc(C)c(NC(=O)c2cnn3ccccc23)c1	inconclusive [activator, partial curve]
CCc1nc2ccccc2c(C(=O)OC2CCOC2=O)c1C (stereo unspecified)	inactive
COc1ccc(NC(=O)CSCc2cnn(-c3ccccc3)c2-n2cccc2)cc1	active: 15.8 µM
COC(=O)c1ccc(CNC(=O)CSc2nnc(COc3ccccc3)n2C)o1	inactive
Cc1cccc(C2CC(=O)Oc3c2c(=O)n(C)c2ccccc32)c1 (stereo unspecified)	inactive
COc1ccc(C(=O)NNC(=O)Cc2ccc(Cl)cc2)cc1	inactive
Cc1ccc(C(=O)N2CCN(c3cccc(C)c3C)CC2)o1	active: 12.6 µM
Cc1cc(C)c2sc(NNC(=O)c3ccc(S(=O)(=O)N4CCc5ccccc5C4)cc3)nc2c1	active: 7.94 µM
Cc1c(C)n(C)c2ccc(C(=O)N3CCN(c4ccccc4)CC3)cc12	active: 22.4 µM and active: 15.8 µM
CCCCOc1ccc(CNC(=O)CCCN2C(=O)CSc3c2c(C)nn3-c2ccccc2)cc1	active: 28.2 µM
O=S(=O)(Cc1ccc(Cl)cc1)Nc1ccc2c(c1)OCO2	inconclusive [activator, single point]
O=C1C=C(c2cc(C(F)(F)F)cc(C(F)(F)F)c2)C[C@@H](c2ccc(Cl)cc2)C1	inactive
COc1ccc(-c2ccc(CCC(=O)O)n2-c2ccccc2OC)cc1	inactive
CCOc1ccc(-c2[nH]ncc2Oc2cccc(OC)c2)c(O)c1	inconclusive [activator, single point]
COc1ccc(NC(=O)C(=O)NCC(=O)Nc2cc(OC)ccc2OC)cc1	inactive
O=c1[nH]c(NCc2ccccc2)nc2c1CCC2	inconclusive [activator, full curve, poor fit]
O=C(Nc1nc2ccc(F)cc2s1)c1nc(S(=O)(=O)Cc2ccccc2)ncc1Cl	inconclusive [activator, full curve]
CC1CN(C(=O)CCC(=O)NCc2ccc(F)cc2)c2cc(Cl)ccc2O1 (stereo unspecified)	inactive
Cc1c(Cl)cccc1N1C(=O)C2ON(c3ccccc3)C(c3cccnc3)C2C1=O (stereo unspecified)	inconclusive [activator, single point]
Cc1cccc(N=Cc2[nH]c3ccc(Br)c(Cl)c3c2O)c1	inconclusive [activator, full curve, poor fit]

Compound	Potency
O=C(NCc1cccc(Cl)c1)c1cnccn1	inactive
C=CCN(C(=O)Cn1ncc2c1-c1cc(C)ccc1OC2)c1ccccc1	inconclusive [activator, single point]
O=C(c1cccnc1)N1CCC2CC1c1c(Cl)cccc12 (stereo unspecified)	inconclusive [activator, partial curve]
Cc1onc(-c2c(Cl)cccc2Cl)c1C(=O)Nc1ccc2c(c1)OCCO2	inconclusive [activator, single point]
CC12CC3CC1C(C(=O)O2)C3C(=O)O (stereo unspecified)	inactive
CCc1ccc(NC(=O)N2CC(C)Oc3ccc(C)cc32)cc1 (stereo unspecified)	inconclusive [activator, single point]
COCCCNc1ncnc2c1cnn2-c1ccc(F)cc1	inconclusive [activator, partial curve]
C/C(=N\NC(N)=S)C1(C)CCCCC1	inconclusive [activator, partial curve]
Cc1ccc(C)c(NS(=O)(=O)c2cc3c(cc2Cl)NC(=O)CO3)c1	inconclusive [activator, partial curve]
CN(C)c1ccnc(-n2cccc2/C=N/OCc2cccc(F)c2)c1C#N	inconclusive [activator, partial curve]
O=C(CCN1CCN(c2ccccc2)CC1)NNC(=O)c1cccc2ccccc12	inconclusive [activator, full curve, poor fit]
O=C(c1ccccc1F)N1CCN(c2cnn(-c3cccc(Cl)c3)c(=O)c2Cl)CC1	active: 20 µM
COc1ccc(S(=O)(=O)N2CCN(C(=O)c3oc4ccccc4c3C)CC2)cc1	active: 11.2 µM
O=C(NCc1ccccc1Cl)c1ccc2c(c1)OCO2	inconclusive [activator, full curve]
CCc1nc2ccc(C(=O)NCc3ccccc3OC)cn2c1N(CCC(C)C)CCN(C)C	inactive
COc1cccc(CNC(=O)COC(=O)c2ccc(C(=O)c3ccccc3)cc2)c1	inconclusive [activator, single point]
Cc1c(NC(=O)/C=C/c2cn(-c3ccccc3)nc2-c2ccc(F)cc2)c(=O)n(-c2ccccc2)n1C	inconclusive [activator, single point]
CC(C)C[C@@H](CO)NC(=O)CC[C@H](NC(=O)OC(C)(C)C)C(=O)N(Cc1ccccc1)Cc1ccccc1	inconclusive [activator, partial curve]
COc1ccc(/C=C/c2noc(-c3ccccc3O)n2)cc1	inactive
Cc1ccc(C(=O)N2CCNC(=O)C2CC(=O)Nc2ccc(F)cc2)cc1C (stereo unspecified)	inactive
O=S(=O)(c1cc(Cl)ccc1Cl)N1CCC2(CC1)OCCO2	inconclusive [activator, single point]
CCSc1ncc(Cl)c(C(=O)Nc2c(C(=O)Nc3ccc(Cl)cc3)oc3ccccc23)n1	inactive
CC12CCC(=O)N1C(C(=O)Nc1cc(C(F)(F)F)ccc1N1CCCCC1)CS2 (stereo unspecified)	inconclusive [activator, partial curve]
COC(=O)N/N=C/c1cn(CCOc2ccc(OC)cc2)c2ccccc12	inconclusive [activator, partial curve]
